Here are results for 35 molecules from the supplement of paper PMC7266297.

Counter-ions that a name gives are not always drawn. The list shows a part of the results. Many values rest on one well or one pass, so single values are uncertain.

One assay deals with KB-3-1. As to the kind of experiment: growth inhibition relative to DMSO control (SRB); cervical cancer cells: KB-3-1 is the parent and KB-V1 overexpresses MDR1; SRB is the sulforhodamine B stain; higher = more growth inhibition. To be noted: 1 µM; 72 h.
The next assay relates to KB-V1. Described as above. To be noted: 1 µM; 72 h.
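Note: Read-out is SRB optical density at 490 nm, with the control being wells given 0.5% DMSO vehicle, and compound added one day after cells were plated.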

As for `O=C(O)c1ccc(N2C(=O)/C(=C\c3ccc(-c4ccc([N+](=O)[O-])cc4)o3)C=C2c2ccccc2)cc1`, the growth inhibition in the assay with KB-3-1 and in the assay on KB-V1 was below 0% in each case.

In the case of `CCS(=O)(=O)Nc1ccc2c(c1)/C(=C(/Nc1ccc(CN3CCCCC3)cc1)c1ccccc1)C(=O)N2` [Hesperadin], the growth inhibition came out at 73% in the assay on KB-3-1 and 69.3% in the assay with KB-V1.

`CC(C)NCC(O)COc1ccc(COCCOC(C)C)cc1` (stereo not given) [Bisoprolol fumarate]: the growth inhibition in the assay on KB-3-1 was 44.9%; in the assay on KB-V1, 34.9%.

As to `Cc1cc(CN2CCN(c3c(Br)cnc4nc(-c5ccc(N6CCN(C)CC6)cc5)[nH]c34)CC2)no1`, the results for the growth inhibition with KB-3-1 and in the assay on KB-V1 were below 0% and 38.5%, respectively.

On to `CCCCC(=O)O[C@H]1CC[C@H]2[C@@H]3CCc4cc(O)ccc4[C@H]3CC[C@]12C` [Estradiol valerate], for which the growth inhibition in the assay on KB-3-1 and in the assay on KB-V1 was below 0% in each case.

On to `CCN(CC)CCCC(C)Nc1nc(C)cc(Nc2ccc3nc(C)cc(N)c3c2)n1` (stereo not given), for which the growth inhibition is 51.1% in the assay on KB-3-1 and 6.79% with KB-V1.

`C[C@@H](NCCCc1cccc(C(F)(F)F)c1)c1cccc2ccccc12` [Cinacalcet HCl]: the growth inhibition was below 0% in the assay on KB-3-1 and 38.7% with KB-V1.

In the case of `Nc1nc(N)c2nc(-c3cccc(O)c3)cnc2n1`, the growth inhibition was 62.6% in the assay with KB-3-1 and 39.7% in the assay on KB-V1.

Turning to `CC(=O)O[C@H]1CC[C@@]2(C)C(=CC[C@@H]3[C@@H]2CC[C@]2(C)C(c4cccnc4)=CC[C@@H]32)C1` [Abiraterone Acetate], the growth inhibition in the assay with KB-3-1 was below 0%; in the assay on KB-V1, 14%.

With `Oc1c2ccccc2c2c3c(cccc13)N=N2`, the growth inhibition with KB-3-1 was found to be 42.6%; with KB-V1, 23.9%.

As to `COc1ccc(Cn2ccc3ccc(C(=O)NO)cc32)cc1`, the growth inhibition with KB-3-1 turned out to be 42.9%; in the assay with KB-V1 it was 23.8%.

On to `Cc1[nH]c(/C=C2\C(=O)Nc3ccccc32)c(C)c1CCC(=O)O` [TSU-68 (SU6668, Orantinib)], for which the growth inhibition in the assay with KB-3-1 came to 32.5%; in the assay on KB-V1 it was 18.4%.

Take `Oc1ccc(-c2nc(-c3ccc(F)cc3)c(-c3ccncc3)[nH]2)cc1`: the results for the growth inhibition in the assay with KB-3-1 and with KB-V1 were 15.6% and 17.8%, respectively.

For `COc1cc2c(Nc3ccc(NC(=O)c4ccccc4)cc3)ncnc2cc1OCCCN1CCOCC1`, the growth inhibition worked out at 72.3% in the assay with KB-3-1 and 40.5% with KB-V1.

On to `CNC(=C[N+](=O)[O-])NCCSCc1ccc(CN(C)C)o1` [Ranitidine], for which the growth inhibition with KB-3-1 is 46.6%; in the assay with KB-V1, 22.5%.

Take `COc1cccc2c1C(=O)c1c(O)c3c(c(O)c1C2=O)C[C@@](O)(C(=O)CO)C[C@@H]3O[C@H]1C[C@H](N)[C@H](O[C@@H]2CCCCO2)[C@H](C)O1` [Pirarubicin]: the growth inhibition with KB-3-1 worked out at 71.3%; in the assay on KB-V1, 56.5%.

Take `CCC(=O)NCC[C@@H]1CCc2ccc3c(c21)CCO3` [Ramelteon]: the growth inhibition with KB-3-1 was 11.9%; in the assay on KB-V1, 32.3%.

For the molecule `N#C/C(=C(/N)Sc1ccc(N)cc1)c1ccccc1C(F)(F)F`, the growth inhibition with KB-3-1 amounted to 23.3%; in the assay on KB-V1, 26.2%.

With `O=C1Nc2ccc(I)cc2/C1=C/c1cc(Br)c(O)c(Br)c1`, the values for the growth inhibition in the assay on KB-3-1 and with KB-V1 were below 0% and 21.9%, respectively.

On to `CCc1c2c(nc3ccc(O)cc13)-c1cc3c(c(=O)n1C2)COC(=O)[C@]3(O)CC`, for which the growth inhibition in the assay on KB-3-1 stood at 71.5%; in the assay on KB-V1, 77.2%.

With `O=C1CN2Cc3c(ccc(Cl)c3Cl)N=C2N1` [Anagrelide HCl], the growth inhibition in the assay with KB-3-1 was below 0%; in the assay with KB-V1 it was 88.3%.

In the case of `Cc1ccc(NC(=O)c2ccc(CN3CCN(C)CC3)cc2)cc1Nc1nc(-c2cccnc2)cs1` [Masitinib (AB1010)], the growth inhibition was determined as 9.73% in the assay with KB-3-1 and 35.4% with KB-V1.

As for `Cc1cc(Nc2cc(N3CCN(C)CC3)nc(/C=C/c3ccccc3)n2)n[nH]1`, the growth inhibition was found to be 92.6% in the assay with KB-3-1 and 75.6% with KB-V1.

Turning to `Fc1ccc([C@@H]2CCNC[C@H]2COc2ccc3c(c2)OCO3)cc1` [Paroxetine HCl], the growth inhibition with KB-3-1 came to 5.06%; with KB-V1, 15.9%.

For `NC(=O)c1ncn([C@@H]2O[C@H](CO)[C@@H](O)[C@H]2O)c1N` [Acadesine], the growth inhibition in the assay with KB-3-1 was 52.9%; in the assay on KB-V1, 22.5%.

As to `CC(=O)N[C@@H](CS)C(=O)O` [Acetylcysteine], the growth inhibition with KB-3-1 was 21.8%; with KB-V1, 13.5%.

For the molecule `CC(C(=O)O)c1ccc2c(c1)CC(=O)c1ccccc1S2` (stereo not given) [Zaltoprofen], the values for the growth inhibition in the assay with KB-3-1 and in the assay on KB-V1 were below 0% and 3.17%, respectively.

As to `O=C(Nc1ccc(-c2ccnc(Nc3ccc(N4CCOCC4)cc3)n2)cc1)C1CCCN1` (stereo not given), the growth inhibition in the assay with KB-3-1 amounted to 44.4%; with KB-V1, 16.1%.

`CCCCc1oc2ccccc2c1C(=O)c1cc(I)c(OCCN(CC)CC)c(I)c1` [Amiodarone HCl]: the growth inhibition in the assay with KB-3-1 came to 37%; in the assay on KB-V1 it was 18.4%.

Consider `N=C(N)NC(=N)NCCc1ccccc1` [Phenformin HCl], for which the growth inhibition was determined as 29.6% in the assay on KB-3-1 and 14.9% with KB-V1.

For the molecule `C[C@H]1COC2=C1C(=O)C(=O)c1c2ccc2c1CCCC2(C)C` [Cryptotanshinone], the growth inhibition amounted to 15.1% in the assay with KB-3-1 and 17.8% in the assay with KB-V1.

`Nc1c(Br)cc(Br)cc1CN[C@H]1CC[C@H](O)CC1` [Ambroxol HCl]: the growth inhibition in the assay with KB-3-1 is below 0%; with KB-V1, 5.56%.

In the case of `CCc1cccc2c3c([nH]c12)C(CC)(CC(=O)O)OCC3` (stereo not given) [Etodolac], the figures for the growth inhibition in the assay with KB-3-1 and in the assay on KB-V1 were 9.05% and 32.7%, respectively.

`CCOc1nc2cccc(C(=O)O)c2n1Cc1ccc(-c2ccccc2-c2noc(=O)[nH]2)cc1` [Azilsartan]: the results for the growth inhibition in the assay with KB-3-1 and with KB-V1 were below 0% and 0.244%, respectively.

On to `O=c1oc2cc(O)ccc2s1` [Tioxolone], for which the growth inhibition in the assay with KB-3-1 came to 30.4%; in the assay on KB-V1 it was 11.7%.
